These are yes or no findings as the source states them, for the method shown. Binding seen in cells or lysates may run through a third protein. Some results given as binding are weak or reduced against the parent protein; the word gives no strength. Where a sequence is shown, tags or fusion partners need not be part of it.

The chains behind the UniProt entries cited, without tags or fusion partners. Where a name states a change or a piece, a line headed by the entry shows the natural chain unless it says otherwise. Residues count along the entry.
UniProt Q9Y3Z3: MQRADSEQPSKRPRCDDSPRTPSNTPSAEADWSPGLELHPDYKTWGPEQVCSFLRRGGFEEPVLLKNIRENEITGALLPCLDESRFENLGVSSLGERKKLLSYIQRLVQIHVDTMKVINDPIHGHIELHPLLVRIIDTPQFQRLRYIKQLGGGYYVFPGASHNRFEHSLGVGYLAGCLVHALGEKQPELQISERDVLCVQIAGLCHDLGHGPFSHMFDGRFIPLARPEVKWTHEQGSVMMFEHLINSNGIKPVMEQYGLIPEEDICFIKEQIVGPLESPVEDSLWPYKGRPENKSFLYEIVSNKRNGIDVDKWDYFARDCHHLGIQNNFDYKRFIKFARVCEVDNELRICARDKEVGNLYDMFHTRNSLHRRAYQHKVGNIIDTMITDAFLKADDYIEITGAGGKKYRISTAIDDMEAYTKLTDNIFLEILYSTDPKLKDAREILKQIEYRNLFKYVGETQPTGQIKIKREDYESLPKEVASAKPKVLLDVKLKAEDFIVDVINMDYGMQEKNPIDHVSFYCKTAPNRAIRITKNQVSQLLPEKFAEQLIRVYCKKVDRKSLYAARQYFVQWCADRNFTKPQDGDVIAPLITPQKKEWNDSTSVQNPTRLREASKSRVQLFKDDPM
HA-SAMHD1 HD domain (M3): residues 164-316 of Q9Y3Z3

The target of test [1] is HA-tagged SAMHD1 wildtype (UniProt Q9Y3Z3). The test is described as follows: co-IP; HEK293T cotransfected for 48 h with HA-SAMHD1 (WT or HD domain M3) and FLAG-IKK (WT or truncated); HA antibody and Dynabeads protein G, IgG as negative control; washed with 50 mM Tris-HCl pH 7.4, 150 mM NaCl, 1% NP-40, 0.25% sodium deoxycholate; Western blot. (In western blotting, separated proteins are transferred to a membrane and probed.)

For the next test, the target named is HA-SAMHD1 HD domain (M3) (UniProt Q9Y3Z3). Described as above.

B1: FLAG-IKKα truncated mutant M5 (aa 423-745) (domain or fragment, UniProt O15111 423-745)
chain: LRKVWAEAVHYVSGLKEDYSRLFQGQRAAMLSLLRYNANLTKMKNTLISASQQLKAKLEFFHKSIQLDLERYSEQMTYGISSEKMLKAWKEMEEKAIHYAEVGVIGYLEDQIMSLHAEIMELQKSPYGRRQGDLMESLEQRAIDLYKQLKHRPSDHSYSDSTEMVKIIVHTVQSQDRVLKELFGHLSKLLGCKQKIIDLLPKVEVALSNIKEADNTVMFMQGKRQKEIWHLLKIACTQSSARSLVGSSLEGAVTPQTSAWLPPTSAEHDHSLSCVVTPQDGETSAQMIEENLNCLGHLSTIIHEANEEQGNSMMNLDWSWLTE
Take B1: the binding result in test [1] was “no binding”.

B2: FLAG-IKKα truncated mutant M2 (aa 1-387) (domain or fragment, UniProt O15111 1-387)
chain: MERPPGLRPGAGGPWEMRERLGTGGFGNVCLYQHRELDLKIAIKSCRLELSTKNRERWCHEIQIMKKLNHANVVKACDVPEELNILIHDVPLLAMEYCSGGDLRKLLNKPENCCGLKESQILSLLSDIGSGIRYLHENKIIHRDLKPENIVLQDVGGKIIHKIIDLGYAKDVDQGSLCTSFVGTLQYLAPELFENKPYTATVDYWSFGTMVFECIAGYRPFLHHLQPFTWHEKIKKKDPKCIFACEEMSGEVRFSSHLPQPNSLCSLVVEPMENWLQLMLNWDPQQRGGPVDLTLKQPRCFVLMDHILNLKIVHILNMTSAKIISFLLPPDESLHSLQSRIERETGINTGSQELLSETGISLDPRKPASQCVLDGVRGCDSYMVYLF
On to B2, for which, in test [1], the binding result was “binds”.

B3: FLAG-IKKα truncated mutant M4 (aa 311-745) (domain or fragment, UniProt O15111 311-745)
chain: KIVHILNMTSAKIISFLLPPDESLHSLQSRIERETGINTGSQELLSETGISLDPRKPASQCVLDGVRGCDSYMVYLFDKSKTVYEGPFASRSLSDCVNYIVQDSKIQLPIIQLRKVWAEAVHYVSGLKEDYSRLFQGQRAAMLSLLRYNANLTKMKNTLISASQQLKAKLEFFHKSIQLDLERYSEQMTYGISSEKMLKAWKEMEEKAIHYAEVGVIGYLEDQIMSLHAEIMELQKSPYGRRQGDLMESLEQRAIDLYKQLKHRPSDHSYSDSTEMVKIIVHTVQSQDRVLKELFGHLSKLLGCKQKIIDLLPKVEVALSNIKEADNTVMFMQGKRQKEIWHLLKIACTQSSARSLVGSSLEGAVTPQTSAWLPPTSAEHDHSLSCVVTPQDGETSAQMIEENLNCLGHLSTIIHEANEEQGNSMMNLDWSWLTE
On to B3, for which, in test [1], the binding result is recorded as “no binding”.

B4: FLAG-IKKβ truncated mutant M1 (aa 1-309) (domain or fragment, UniProt O14920-1 1-309)
chain: MSWSPSLTTQTCGAWEMKERLGTGGFGNVIRWHNQETGEQIAIKQCRQELSPRNRERWCLEIQIMRRLTHPNVVAARDVPEGMQNLAPNDLPLLAMEYCQGGDLRKYLNQFENCCGLREGAILTLLSDIASALRYLHENRIIHRDLKPENIVLQQGEQRLIHKIIDLGYAKELDQGSLCTSFVGTLQYLAPELLEQQKYTVTVDYWSFGTLAFECITGFRPFLPNWQPVQWHSKVRQKSEVDIVVSEDLNGTVKFSSSLPYPNNLNSVLAERLEKWLQLMLMWHPRQRGTDPTYGPNGCFKALDDILNL
On to B4, for which the binding result in test [1] was “binds weakly”.

B5: FLAG-IKKα truncated mutant M3 (aa 1-664) (domain or fragment, UniProt O15111 1-664)
chain: MERPPGLRPGAGGPWEMRERLGTGGFGNVCLYQHRELDLKIAIKSCRLELSTKNRERWCHEIQIMKKLNHANVVKACDVPEELNILIHDVPLLAMEYCSGGDLRKLLNKPENCCGLKESQILSLLSDIGSGIRYLHENKIIHRDLKPENIVLQDVGGKIIHKIIDLGYAKDVDQGSLCTSFVGTLQYLAPELFENKPYTATVDYWSFGTMVFECIAGYRPFLHHLQPFTWHEKIKKKDPKCIFACEEMSGEVRFSSHLPQPNSLCSLVVEPMENWLQLMLNWDPQQRGGPVDLTLKQPRCFVLMDHILNLKIVHILNMTSAKIISFLLPPDESLHSLQSRIERETGINTGSQELLSETGISLDPRKPASQCVLDGVRGCDSYMVYLFDKSKTVYEGPFASRSLSDCVNYIVQDSKIQLPIIQLRKVWAEAVHYVSGLKEDYSRLFQGQRAAMLSLLRYNANLTKMKNTLISASQQLKAKLEFFHKSIQLDLERYSEQMTYGISSEKMLKAWKEMEEKAIHYAEVGVIGYLEDQIMSLHAEIMELQKSPYGRRQGDLMESLEQRAIDLYKQLKHRPSDHSYSDSTEMVKIIVHTVQSQDRVLKELFGHLSKLLGCKQKIIDLLPKVEVALSNIKEADNTVMFMQGKRQKEIWHLLKIACTQSSAR
For B5, the binding entry in test [1] is reported as “binds”.

B6: FLAG-tagged IKKβ wildtype (protein, UniProt O14920-1 1-756)
chain: MSWSPSLTTQTCGAWEMKERLGTGGFGNVIRWHNQETGEQIAIKQCRQELSPRNRERWCLEIQIMRRLTHPNVVAARDVPEGMQNLAPNDLPLLAMEYCQGGDLRKYLNQFENCCGLREGAILTLLSDIASALRYLHENRIIHRDLKPENIVLQQGEQRLIHKIIDLGYAKELDQGSLCTSFVGTLQYLAPELLEQQKYTVTVDYWSFGTLAFECITGFRPFLPNWQPVQWHSKVRQKSEVDIVVSEDLNGTVKFSSSLPYPNNLNSVLAERLEKWLQLMLMWHPRQRGTDPTYGPNGCFKALDDILNLKLVHILNMVTGTIHTYPVTEDESLQSLKARIQQDTGIPEEDQELLQEAGLALIPDKPATQCISDGKLNEGHTLDMDLVFLFDNSKITYETQISPRPQPESVSCILQEPKRNLAFFQLRKVWGQVWHSIQTLKEDCNRLQQGQRAAMMNLLRNNSCLSKMKNSMASMSQQLKAKLDFFKTSIQIDLEKYSEQTEFGITSDKLLLAWREMEQAVELCGRENEVKLLVERMMALQTDIVDLQRSPMGRKQGGTLDDLEEQARELYRRLREKPRDQRTEGDSQEMVRLLLQAIQSFEKKVRVIYTQLSKTVVCKQKALELLPKVEEVVSLMNEDEKTVVRLQEKRQKELWNLLKIACSKVRGPVSGSPDSMNASRLSQPGQLMSQPSTASNSLPEPAKKSEELVAEAHNLCTLLENAIQDTVREQDQSFTALDWSWLQTEEEEHSCLEQAS
As to B6, the binding entry (in test [1]; in the test with HA-SAMHD1 HD domain (M3)) was “binds” each time.

B7: p-IKKβ (active), phosphorylated IKKβ in cells transfected with FLAG-IKKβ (protein, UniProt O14920-1 1-756)
chain: B6 chain
modifications: phosphorylated, detected with the Phospho-IKKα/β (Ser176/180) antibody
Consider B7, for which the binding result with HA-SAMHD1 HD domain (M3) is “binds”.

B8: FLAG-IKKβ truncated mutant M4 (aa 310-756) (domain or fragment, UniProt O14920-1 310-756)
chain: KLVHILNMVTGTIHTYPVTEDESLQSLKARIQQDTGIPEEDQELLQEAGLALIPDKPATQCISDGKLNEGHTLDMDLVFLFDNSKITYETQISPRPQPESVSCILQEPKRNLAFFQLRKVWGQVWHSIQTLKEDCNRLQQGQRAAMMNLLRNNSCLSKMKNSMASMSQQLKAKLDFFKTSIQIDLEKYSEQTEFGITSDKLLLAWREMEQAVELCGRENEVKLLVERMMALQTDIVDLQRSPMGRKQGGTLDDLEEQARELYRRLREKPRDQRTEGDSQEMVRLLLQAIQSFEKKVRVIYTQLSKTVVCKQKALELLPKVEEVVSLMNEDEKTVVRLQEKRQKELWNLLKIACSKVRGPVSGSPDSMNASRLSQPGQLMSQPSTASNSLPEPAKKSEELVAEAHNLCTLLENAIQDTVREQDQSFTALDWSWLQTEEEEHSCLEQAS
On to B8, for which the binding result in test [1] is “binds”.

B9: FLAG-IKKβ truncated mutant M2 (aa 1-390) (domain or fragment, UniProt O14920-1 1-390)
chain: MSWSPSLTTQTCGAWEMKERLGTGGFGNVIRWHNQETGEQIAIKQCRQELSPRNRERWCLEIQIMRRLTHPNVVAARDVPEGMQNLAPNDLPLLAMEYCQGGDLRKYLNQFENCCGLREGAILTLLSDIASALRYLHENRIIHRDLKPENIVLQQGEQRLIHKIIDLGYAKELDQGSLCTSFVGTLQYLAPELLEQQKYTVTVDYWSFGTLAFECITGFRPFLPNWQPVQWHSKVRQKSEVDIVVSEDLNGTVKFSSSLPYPNNLNSVLAERLEKWLQLMLMWHPRQRGTDPTYGPNGCFKALDDILNLKLVHILNMVTGTIHTYPVTEDESLQSLKARIQQDTGIPEEDQELLQEAGLALIPDKPATQCISDGKLNEGHTLDMDLVFLF
For B9, the binding entry in test [1] is on record as “binds”.

B10: FLAG-IKKα truncated mutant M1 (aa 1-310) (domain or fragment, UniProt O15111 1-310)
chain: MERPPGLRPGAGGPWEMRERLGTGGFGNVCLYQHRELDLKIAIKSCRLELSTKNRERWCHEIQIMKKLNHANVVKACDVPEELNILIHDVPLLAMEYCSGGDLRKLLNKPENCCGLKESQILSLLSDIGSGIRYLHENKIIHRDLKPENIVLQDVGGKIIHKIIDLGYAKDVDQGSLCTSFVGTLQYLAPELFENKPYTATVDYWSFGTMVFECIAGYRPFLHHLQPFTWHEKIKKKDPKCIFACEEMSGEVRFSSHLPQPNSLCSLVVEPMENWLQLMLNWDPQQRGGPVDLTLKQPRCFVLMDHILNL
In the case of B10, the binding entry in test [1] is reported as “binds”.

B11: FLAG-IKKβ truncated mutant M3 (aa 1-666) (domain or fragment, UniProt O14920-1 1-666)
chain: MSWSPSLTTQTCGAWEMKERLGTGGFGNVIRWHNQETGEQIAIKQCRQELSPRNRERWCLEIQIMRRLTHPNVVAARDVPEGMQNLAPNDLPLLAMEYCQGGDLRKYLNQFENCCGLREGAILTLLSDIASALRYLHENRIIHRDLKPENIVLQQGEQRLIHKIIDLGYAKELDQGSLCTSFVGTLQYLAPELLEQQKYTVTVDYWSFGTLAFECITGFRPFLPNWQPVQWHSKVRQKSEVDIVVSEDLNGTVKFSSSLPYPNNLNSVLAERLEKWLQLMLMWHPRQRGTDPTYGPNGCFKALDDILNLKLVHILNMVTGTIHTYPVTEDESLQSLKARIQQDTGIPEEDQELLQEAGLALIPDKPATQCISDGKLNEGHTLDMDLVFLFDNSKITYETQISPRPQPESVSCILQEPKRNLAFFQLRKVWGQVWHSIQTLKEDCNRLQQGQRAAMMNLLRNNSCLSKMKNSMASMSQQLKAKLDFFKTSIQIDLEKYSEQTEFGITSDKLLLAWREMEQAVELCGRENEVKLLVERMMALQTDIVDLQRSPMGRKQGGTLDDLEEQARELYRRLREKPRDQRTEGDSQEMVRLLLQAIQSFEKKVRVIYTQLSKTVVCKQKALELLPKVEEVVSLMNEDEKTVVRLQEKRQKELWNLLKIACSKVR
Regarding B11, the binding result in test [1] was “binds”.

The values above are taken from paper PMC10318468.
